Experimental data reported in US20150044209A1 (ROYAL INSTITUTION FOR THE ADVANCEMENT OF LEARNING MCGILL …, published 2015).

B1: Trap H: h-sIGF1R-Fc, purified from CHO cells using protein A, pH 4.0 elution, endotoxin-free (Fc fusion)
chain: not shown
notes: also called Trap H (parent protein); IGF-Trap H
B2: Trap E: h-sIGF1R-Fc, purified from CHO cells by CHT and GF (Fc fusion)
chain: not shown
notes: Trap E is said to be contaminated by high molecular weight species; also called E (control); Fc-sIGF1R

Columns and labels:
human IGF-2 [1] = target: T1, human IGF-2 (human, UniProt P01344 partial chain); assay: SPR, 10-point multi-cycle, ligand over amine-coupled Trap, 1:1 Kinetic model, n=2
T1 construct: also called hIGF-2; hIGF-II

human IGF-1 [2] = target: T2, human IGF-1 (human, UniProt P05019 partial chain); assay: as above
T2 construct: also called hIGF-1; hIGF-I

mouse IGF-1 [3] = target: T3, mouse IGF-1 (mouse, UniProt P05017 partial chain); assay: SPR, 5-point multi-cycle, ligand over amine-coupled Trap, 1:1 Kinetic model, n=2
T3 construct: also called mIGF-1; mIGF-I

human insulin [4] = target: T4, human insulin (human, UniProt P01308 partial chain; P01308 partial chain); assay: as above
T4 construct: also called h-insulin

human IGF-2 [5] = target: T1, human IGF-2; assay: SPR, 5-point single-cycle, ligand over amine-coupled Trap, 1:1 Titration model, n=2
T1 sequence (P01344 25-91 limits assumed): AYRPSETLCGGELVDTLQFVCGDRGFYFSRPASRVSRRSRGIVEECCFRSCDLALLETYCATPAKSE

mouse IGF-1 [6] = target: T3, mouse IGF-1; assay: as above
T3 sequence (P05017 49-118 limits assumed): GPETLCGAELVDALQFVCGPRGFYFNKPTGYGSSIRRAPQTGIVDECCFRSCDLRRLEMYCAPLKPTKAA

human IGF-1 [7] = target: T2, human IGF-1; assay: as above
T2 sequence (P05019 49-118 limits assumed): as the sequence (P05017 49-118 limits assumed) above, with P20D, I35S, T67A, A69S counted along it

human insulin [8] = target: T4, human insulin; assay: as above
T4 sequence (P01308 25-54 limits assumed, chain 1 of 2): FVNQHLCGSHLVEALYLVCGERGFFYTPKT
T4 sequence (P01308 90-110 limits assumed, chain 2 of 2): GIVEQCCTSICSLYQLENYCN

human insulin [9] = target: T4, human insulin; assay: SPR (Biacore 3000), multi-cycle, insulin titrated over amine-coupled Trap, steady-state affinity model, n=4
human IGF-1 [10] = target: T2, human IGF-1; assay: SPR (Biacore 3000), multi-cycle, ligand titrated over amine-coupled Trap, 1:1 kinetic model, n=4

Row | Binder | Kd (human IGF-2 [1]) [nM] | Kd (human IGF-1 [2]) [nM] | Kd (mouse IGF-1 [3]) [nM] | Kd (human insulin [4]) [nM] | Kd (human IGF-2 [5]) [nM] | Kd (mouse IGF-1 [6]) [nM] | Kd (human IGF-1 [7]) [nM] | Kd (human insulin [8]) [nM] | Kd (human insulin [9]) [nM] | Kd (human IGF-1 [10]) [nM]
1 | B1 | 32 | 5.7 | 74 | 5050 | 98 | 540 | 11 | 15400 | – | –
2 | B2 | – | – | – | – | – | – | – | – | 14000 | 6
